The whole screen tested about 3,200 compounds, of which about 110 (3.4%) showed an effect of 50% or more. The list shows a part of the results.

The values that follow come from paper PMC11995724, “Antibiotic target discovery by integrated phenotypic and activity-based profiling of electrophilic fragments” (Cell chemical biology, 2025).

The subject of this experiment is T1, V. cholerae SAD30.
T1 construct: SAD30
On the set-up: species or system S. aureus MSSA476 (TSB) or V. cholerae SAD30 (LB); 384-well bacterial growth screen at 25 uM, OD600 relative to DMSO control. The following applies: relative growth, OD600, LB; 25 µM; inhibitor.
On to `CC1CN(S(=O)(=O)c2ccc(NC(=O)CCl)cc2)CC(C)O1` (centres unmarked) [5-O15, 2-chloro-N-{4-[(2,6-dimethylmorpholin-4-yl)sulfonyl]phenyl}acetamide], for which the “% of control remaining” value is recorded as 100.032%.
Turning to `Cc1noc(C)c1C(=O)CCl` [10-K13, 2-chloro-1-(3,5-dimethyl-1,2-oxazol-4-yl)ethan-1-one], the “% of control remaining” value is recorded as 23.0664%.
Consider `O=C1C=CC(=O)N1c1ccc2ccccc2c1` [10-D07, 1-(naphthalen-2-yl)-2,5-dihydro-1H-pyrrole-2,5-dione], for which the “% of control remaining” value was 22.2872%.
The figure for `C=CC(=O)Nc1ccoc1C(=O)c1ccc(C)cc1` [1-A04, N-[2-(4-methylbenzoyl)furan-3-yl]prop-2-enamide] is 72.9447%; for `CC(Cl)C(=O)Nc1ccc2ccccc2c1` (centres unmarked) [5-H10, 2-chloro-N-(naphthalen-2-yl)propanamide] it is 71.1148%; for `CC(C)CNC(=O)c1ccccc1NC(=O)CCl` [4-E04, 2-(2-chloroacetamido)-N-(2-methylpropyl)benzamide] it is 105.24%.
`Cc1ccc(C(=O)c2ccccc2NC(=O)CCl)cc1` [4-N17, 2-chloro-N-[2-(4-methylbenzoyl)phenyl]acetamide]: the “% of control remaining” value is listed as 101.445%.
As for `N#CC(=CC1=Cc2ccccc2OC1)C(=O)Nc1ccc(C(=O)O)cc1` [8-N08, 4-[3-(2H-chromen-3-yl)-2-cyanoprop-2-enamido]benzoic acid], the “% of control remaining” value was found to be 71.9918%.
Regarding `CC(Cl)C(=O)NCCN(C)S(=O)(=O)c1cccs1` (centres unmarked) [7-F05, 2-chloro-N-[2-(N-methylthiophene-2-sulfonamido)ethyl]propanamide], the “% of control remaining” value is 81.4142%.
The figure for `CC(Cl)C(=O)Nc1ncnc2[nH]cnc12` (centres unmarked) [6-I18, 2-chloro-N-(9H-purin-6-yl)propanamide] is 89.0321%.
On to `Cl.O=C1C=CC(=O)N1C1CNC1` [10-O19, 1-(azetidin-3-yl)-2,5-dihydro-1H-pyrrole-2,5-dione hydrochloride], for which the “% of control remaining” value stood at 100.994%.
The figure for `COc1cc(NC(=O)C(C)Cl)cc(OC)c1` (centres unmarked) [4-I04, 2-chloro-N-(3,5-dimethoxyphenyl)propanamide] is 104.895%; for `C=CC(=O)NCc1ccc(C(=O)N2CCCC2)cc1` [3-O05, N-{[4-(pyrrolidine-1-carbonyl)phenyl]methyl}prop-2-enamide] it is 110.086%; for `CNC(=O)c1cc(OC2CCCN(C(=O)CCl)C2)ccn1` (centres unmarked) [5-P05, 4-{[1-(2-chloroacetyl)piperidin-3-yl]oxy}-N-methylpyridine-2-carboxamide] it is 111.968%.
With `Cc1ccc(C=C(C#N)C(=O)NC(N)=O)o1` [8-D21, {2-cyano-2-[(5-methylfuran-2-yl)methylidene]acetyl}urea], the “% of control remaining” value was determined as 88.1713%.
Turning to `COc1ccc(-c2csc(NC(=O)CCl)n2)c(OC)c1` [4-F12, 2-chloro-N-[4-(2,4-dimethoxyphenyl)-1,3-thiazol-2-yl]acetamide], the “% of control remaining” value is reported as 98.6845%.
Consider `Cc1cc(NS(=O)(=O)c2ccc(NC(=O)CCl)cc2)nc(C)n1` [5-I09, 2-chloro-N-{4-[(2,6-dimethylpyrimidin-4-yl)sulfamoyl]phenyl}acetamide], for which the “% of control remaining” value is recorded as 98.3503%.
As for `Cc1noc(C)c1CN(C)C(=O)CCl` [5-G06, 2-chloro-N-[(3,5-dimethyl-1,2-oxazol-4-yl)methyl]-N-methylacetamide], the “% of control remaining” value stood at 92.4661%.
As for `CC(C)c1ccc(CC(=O)CCl)cc1` [10-I17, 1-chloro-3-[4-(propan-2-yl)phenyl]propan-2-one], the “% of control remaining” value is 115.644%.
As for `C=CC(=O)N(C)C[C@@H]1CCC(=O)N1` [3-A22, N-methyl-N-{[(2S)-5-oxopyrrolidin-2-yl]methyl}prop-2-enamide], the “% of control remaining” value was determined as 131.612%.
As for `C=CC(=O)NC(c1nc(C)cs1)C(F)(F)F` (centres unmarked) [2-I17, N-[2,2,2-trifluoro-1-(4-methyl-1,3-thiazol-2-yl)ethyl]prop-2-enamide], the “% of control remaining” value worked out at 88.6519%.
In the case of `COc1cccc(N2C(=O)C=CC2=O)c1` [10-K03, 1-(3-methoxyphenyl)-2,5-dihydro-1H-pyrrole-2,5-dione], the “% of control remaining” value came to 23.8457%.
`CC(Cl)C(=O)NC1CCCCC1` (centres unmarked) [4-O06, 2-chloro-N-cyclohexylpropanamide]: the “% of control remaining” value turned out to be 109.209%.
The figure for `C=CC(=O)N(C)Cc1ccn(CC)n1` [1-L16, N-[(1-ethyl-1H-pyrazol-3-yl)methyl]-N-methylprop-2-enamide] is 75.3189%; for `C=CC(=O)N(CC)CC(=O)N1CCCC1c1ccc(F)cc1C` (centres unmarked) [2-F08, N-ethyl-N-{2-[2-(4-fluoro-2-methylphenyl)pyrrolidin-1-yl]-2-oxoethyl}prop-2-enamide] it is 91.5854%.
The figure for `Cc1ccc(C(=O)CN(C(=O)CCl)c2ccccc2)cc1` [4-B13, 2-chloro-N-[2-(4-methylphenyl)-2-oxoethyl]-N-phenylacetamide] is 88.333%; for `CC(O)=C(C#N)C(=O)Nc1ccc(C(F)(F)F)cc1` [9-A05, 2-cyano-3-hydroxy-N-[4-(trifluoromethyl)phenyl]but-2-enamide] it is 85.588%.
For `CCN(CC)C(=O)c1ccc(NC(=O)CCl)cc1` [4-C05, 4-(2-chloroacetamido)-N,N-diethylbenzamide], the “% of control remaining” value came out at 102.653%.
The figure for `C=CC(=O)NCC(=O)N1CCCO1` [1-H05, N-[2-(1,2-oxazolidin-2-yl)-2-oxoethyl]prop-2-enamide] is 95.9641%; for `CN1C(=O)C(=C(C#N)C(=O)NCc2ccc(Cl)cc2)c2ccccc21` [8-K17, N-[(4-chlorophenyl)methyl]-2-cyano-2-(1-methyl-2-oxo-2,3-dihydro-1H-indol-3-ylidene)acetamide] it is 57.9878%; for `N#CC(=Cc1ccc2c(c1)OCCO2)C(=O)NCc1ccccc1` [8-H03, N-benzyl-2-cyano-3-(2,3-dihydro-1,4-benzodioxin-6-yl)prop-2-enamide] it is 91.2984%.
For `O=C(CCl)Nc1cc(C(F)(F)F)ccc1Cl` [4-J04, 2-chloro-N-[2-chloro-5-(trifluoromethyl)phenyl]acetamide], the “% of control remaining” value came out at 111.106%.
Regarding `COc1cccc(C=C(C#N)C(=O)Nc2ccccc2C(=O)O)c1` [9-G08, 2-[2-cyano-3-(3-methoxyphenyl)prop-2-enamido]benzoic acid], the “% of control remaining” value stood at 85.4521%.
Consider `O=C(CCl)Nc1ccnn1Cc1ccccc1Cl` [6-O08, 2-chloro-N-{1-[(2-chlorophenyl)methyl]-1H-pyrazol-5-yl}acetamide], for which the “% of control remaining” value is on record as 97.2225%.
The figure for `CC(Cl)C(=O)NC(C)c1nnnn1C1CC1` (centres unmarked) [7-N21, 2-chloro-N-[1-(1-cyclopropyl-1H-1,2,3,4-tetrazol-5-yl)ethyl]propanamide] is 103.882%.
With `Cc1cc(C)c(NC(=O)C(C#N)=Cc2ccccc2C)c(C)c1` [8-E13, 2-cyano-3-(2-methylphenyl)-N-(2,4,6-trimethylphenyl)prop-2-enamide], the “% of control remaining” value worked out at 74.847%.
For `N#CC(=Cc1cnn(CCCl)c1)C(=O)NC1CCCCC1` [9-A16, 3-[1-(2-chloroethyl)-1H-pyrazol-4-yl]-2-cyano-N-cyclohexylprop-2-enamide], the “% of control remaining” value worked out at 83.2767%.
The figure for `CCCn1c(C)cc(C=C(C#N)C(=O)N2CCCC2)c1C` [9-I03, 3-(2,5-dimethyl-1-propyl-1H-pyrrol-3-yl)-2-(pyrrolidine-1-carbonyl)prop-2-enenitrile] is 89.259%; for `C=CC(=O)NCCC(=O)Nc1nc2n(n1)CCCC2` [2-M14, N-[2-({5H,6H,7H,8H-[1,2,4]triazolo[1,5-a]pyridin-2-yl}carbamoyl)ethyl]prop-2-enamide] it is 96.5261%; for `O=C(CCl)NC(=O)c1ccc(OC(F)F)cc1` [5-J22, N-(2-chloroacetyl)-4-(difluoromethoxy)benzamide] it is 104.907%.
As to `C=CC(=O)N1CCCCC1Cn1ccnn1` (centres unmarked) [2-K07, 1-{2-[(1H-1,2,3-triazol-1-yl)methyl]piperidin-1-yl}prop-2-en-1-one], the “% of control remaining” value is recorded as 85.7184%.
The figure for `C=CC(=O)NCc1cnc(-c2ccc(C(F)(F)F)cc2)s1` [1-C13, N-({2-[4-(trifluoromethyl)phenyl]-1,3-thiazol-5-yl}methyl)prop-2-enamide] is 68.9088%; for `N#CC(=Cc1coc2ccccc2c1=O)C(=O)NCCc1ccccc1` [9-J10, 2-cyano-3-(4-oxo-4H-chromen-3-yl)-N-(2-phenylethyl)prop-2-enamide] it is 63.1543%; for `O=C(CCl)c1cn(-c2cccc(C(F)(F)F)c2)nn1` [10-C09, 2-chloro-1-{1-[3-(trifluoromethyl)phenyl]-1H-1,2,3-triazol-4-yl}ethan-1-one] it is 24.9367%.
As to `Cc1cc(CN(C(=O)CCl)c2cn(C)nn2)ccc1Cl` [5-I12, 2-chloro-N-[(4-chloro-3-methylphenyl)methyl]-N-(1-methyl-1H-1,2,3-triazol-4-yl)acetamide], the “% of control remaining” value was found to be 91.7936%.
Take `Cc1nn(C)c(C)c1C(NC(=O)CCl)C(F)(F)F` (centres unmarked) [5-M18, 2-chloro-N-[2,2,2-trifluoro-1-(1,3,5-trimethyl-1H-pyrazol-4-yl)ethyl]acetamide]: the “% of control remaining” value came out at 100.2%.
The figure for `CC(Cl)C(=O)N1CCn2c(Cc3c(F)cccc3F)nnc2C1` (centres unmarked) [6-F18, 2-chloro-1-{3-[(2,6-difluorophenyl)methyl]-5H,6H,7H,8H-[1,2,4]triazolo[4,3-a]pyrazin-7-yl}propan-1-one] is 81.4485%.
